Columns and labels:
[1] = target: T1, IGF-1R phosphorylation (Homo sapiens, UniProt P08069); experiment: Inhibition of IGF-1 and IGF-2 mediated IGF-1R phosphorylation in MCF-7 cells (ELISA); format: cell-based; details: Fabs
T1 construct: wild type IGF-1R expressed on MCF-7 tumor cells; endogenous in cells; host or cells: MCF-7
Protocol: Cell lines: IGF1R expressing human breast carcinoma cell line MCF-7 (NCI) were maintained at 37° C. and 5% CO2 in MEM eagle (ATCC) containing 10% FBS, 1× non-essential amino acids, 2 mM L-glutamine, 1 mM sodium pyruvate and 1000 U/ml penicillin and streptomycin. Cells were sub-cultured twice weekly for maintenance and assay, and used with a maximum of 12 passages.
MCF-7 cells were plated in 2 ml growth media at 2×10^5 to 4.0×10^5 cells/well in Ploy-D-Lysine coated 12 well plates (BD Biosciences, #35-6470) and cultured at 37° C., 5% CO2. […]
Cell lysates were added to ELISA plates pre-coated with IGF-1Rp antibody (Clone 1-2, Biosource International, #AHR0361) and incubated for 2 hours. Following which plates were washed and the plate bound phosphorylated receptor was detected with the biotin labeled anti-phosphotyrosine antibody 4G10 (Catalog #16-103, Upstate Cell Signaling Solutions (Lake Placid, N.Y. (now part of Millipore, Concord, Mass. (USA)) and streptavidin-HRP (BD Pharmingen, #554066). Assay is developed by addition of TMB substrate (Kierkegaard & Perry, #50-76-00) and color stopped by addition of […] (LabChem, Cat#LC25830-1). Optical density is measured at 450 nm using a Molecular Devices plate reader and percent inhibition over the ligand control is calculated for each antibody-ligand sample. […]

[2] = tested on: BxPC3 xenograft; experiment: BxPC3 xenograft, combination with gemcitabine; format: in vivo, mouse
Protocol: Gemcitabine alone, M13.C06.G4.P.agly antibody alone, and sham injections of the delivery vehicle alone were administered as negative controls. Tumor volume at the start of the therapy was approximately 200 mm^3.

[3] = tested on: BxPC3; experiment: Cell cycle arrest of BxPC3 cells (propidium iodide FACS); format: cell-based, human; details: 133.3 nM antibody, IGF-1 at 200 ng/ml, 24 hours
Protocol: Method: The ability of fully human IGF-1R antibodies to arrest cell cycle progression was assessed by FACS analysis; monitoring incorporation of propidium iodide in cultured BxPC3 cells. BxPC3 cells (4×10^5 cells/well) were plated into 6 well plates. After 24 hours, cells were changed to serum-free media (SFM) for the following 24 hours. […] After 24 hours, the cells were trypsinized and fixed with ethanol. DNA content was stained with propidium iodide (PI) prior to FACS analysis. An isotype matched antibody, IDEC-151 (human G4), was used as a negative control.

| Molecule | Inhibition of IGF-1R Phosphorylation IGF-1 ([1]; IGF-1 stimulated) | Inhibition of IGF-1R Phosphorylation IGF-2 ([1]; IGF-2 stimulated) | efficacy in combination with Gemcitabine ([2]; antibody 15 mg/kg) | efficacy in combination with Gemcitabine compared to the single agent treatments ([2]; antibody 30 mg/kg twice a week or 60 mg/kg weekly, gemcitabine 80 mg/kg every 3 days for 4 weeks) | cell cycle arrest [3] |
| --- | --- | --- | --- | --- | --- |
| M14-G11: anti-IGF1-R antibody, competitive blocker of IGF-1 and IGF-2 (antibody, V domains shown, Antibody variable heavy chain sequence; Antibody variable light chain sequence) VH: EVQLLESGGGLVQPGGSLRLSCAASGFTFSNYPMYWVRQAPGKGLEWVSRISSSGGRTVYADSVKGRFTISRDNSKNTLYLQMNSLRAEDTAVYYCARDRWSRSAAEYGLGGYWGQGTLVTVSS VL: DIQMTQSPDSLAVSLGERATINCKSSQSVLYSSNNKNYLAWYQQKPGQPPKLLIYLASTRESGVPDRFSGSGSGTDFTLTISSLQAEDVAVYYCQQYYSTWTFGQGTKVEIK | + (>30%@10 ug/ml) | +++ (>30%@0.1ug/ml) | – | – | – |
| M13-C06.G4.P.agly: full-length hinge-modified aglycosylated human gamma 4, kappa antibody with the binding domain of Fab M13-C06 (antibody) heavy: EVQLLESGGGLVQPGGSLRLSCAASGFTFSIYRMQWVRQAPGKGLEWVSGISPSGGTTWYADSVKGRFTISRDNSKNTLYLQMNSLRAEDTAVYYCARWSGGSGYAFDIWGQGTMVTVSSASTKGPSVFPLAPCSRSTSESTAALGCLVKDYFPEPVTVSWNSGALTSGVHTFPAVLQSSGLYSLSSVVTVPSSSLGTKTYTCNVDHKPSNTKVDKRV[human IgG4 Fc with S228P T299A (EU numbers) not written out] light: DIQMTQSPLSLSASVGDRVTITCQASRDIRNYLNWYQQKPGKAPKLLIYDASSLQTGVPSRFGGSGSGTDFSFTIGSLQPEDIATYYCQQFDSLPHTFGQGTKLEIKRTVAAPSVFIFPPSDEQLKSGTASVVCLLNNFYPREAKVQWKVDNALQSGNSQESVTEQDSKDSTYSLSSTLTLSKADYEKHKVYACEVTHQGLSSPVTKSFNRGEC | – | – | additive efficacy | additive efficacy | arrested the BxPC3 tumor cells at the G0/G1 phase |

— patent US20090291088A1, “THERAPEUTIC COMBINATIONS OF ANTI-IGF-1R ANTIBODIES AND OTHER COMPOUNDS” (Biogen Idec MA Inc., priority 2008, published 2009)
